Data taken from PubChem BioAssay (NCI).
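How tested: cells in 96-well plates exposed to compound for 48 hours at five concentrations. GI50 = concentration required for 50% inhibition of growth. Definition used: TGI = concentration required for complete inhibition of growth.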

System: NCI-H322M lung
Test: growth of human tumour cells (NCI), 48 h

Work on `CN(C)c1ccc(-c2c(NC(C)(C)C)nc3c(OCCc4ccccc4)cccn23)cc1` yielded a GI50 of 2.75 µM and a TGI of 16.1 µM.

`COc1ccccc1/C=C/C=N/NC1=NC2C(S1)N(C)C(=O)N2C` (centres undefined) showed a GI50 of 5.73 µM and a TGI of over 100 µM.
